Data on five molecules can be found in PMC546208.

The chains behind the UniProt entries cited, without tags or fusion partners. Residues count along the entry.
UniProt O14936, residues 489-564: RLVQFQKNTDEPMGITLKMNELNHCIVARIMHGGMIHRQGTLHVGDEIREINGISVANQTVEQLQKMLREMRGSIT
UniProt Q96RT1, residues 1321-1410: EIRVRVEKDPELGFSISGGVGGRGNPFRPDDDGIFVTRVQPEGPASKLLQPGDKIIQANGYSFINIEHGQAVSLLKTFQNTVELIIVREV
UniProt Q9NRD5, residues 22-105: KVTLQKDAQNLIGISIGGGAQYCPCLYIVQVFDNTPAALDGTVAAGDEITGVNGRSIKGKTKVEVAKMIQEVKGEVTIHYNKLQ
UniProt Q14160, residues 669-1233: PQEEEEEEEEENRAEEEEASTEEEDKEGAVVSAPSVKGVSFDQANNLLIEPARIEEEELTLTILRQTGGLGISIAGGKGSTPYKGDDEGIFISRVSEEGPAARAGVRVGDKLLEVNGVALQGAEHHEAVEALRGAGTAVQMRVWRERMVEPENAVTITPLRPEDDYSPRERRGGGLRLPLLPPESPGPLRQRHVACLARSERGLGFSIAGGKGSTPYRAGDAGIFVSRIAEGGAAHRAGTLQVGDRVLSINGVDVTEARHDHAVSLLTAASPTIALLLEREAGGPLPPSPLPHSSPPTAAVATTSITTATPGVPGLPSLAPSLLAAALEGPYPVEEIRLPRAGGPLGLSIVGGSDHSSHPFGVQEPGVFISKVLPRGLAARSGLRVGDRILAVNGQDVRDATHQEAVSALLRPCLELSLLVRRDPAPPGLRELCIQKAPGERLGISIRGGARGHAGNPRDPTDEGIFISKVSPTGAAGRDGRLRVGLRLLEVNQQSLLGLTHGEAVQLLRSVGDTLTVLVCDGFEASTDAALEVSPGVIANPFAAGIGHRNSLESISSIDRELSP

Numbering of substitutions follows the chain as printed. Results are given in words; binding and its absence hold for the method and conditions named. Some results given as binding are weak or reduced against the parent protein; the word gives no strength. For some of these results: Sequences can lack the tags named with a protein.

Assay [1] deals with T1, pGBT9-LPPWT: third LIM domain and carboxy-terminus of human LPP (amino acids 531–612) (human) (UniProt Q93052).
T1 sequence: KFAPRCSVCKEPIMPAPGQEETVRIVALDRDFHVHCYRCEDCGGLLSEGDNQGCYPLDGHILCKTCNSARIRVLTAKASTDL
In words: two-hybrid; yeast, pGBT9-LPPWT with pACT2 preys of PDZ domains; growth on medium lacking Leu and Trp, with His or without His with 5 mM 3-AT.

The target of assay [2] is T2, pM-LPP_(dNEST610A) (human) (UniProt Q93052).
T2 sequence: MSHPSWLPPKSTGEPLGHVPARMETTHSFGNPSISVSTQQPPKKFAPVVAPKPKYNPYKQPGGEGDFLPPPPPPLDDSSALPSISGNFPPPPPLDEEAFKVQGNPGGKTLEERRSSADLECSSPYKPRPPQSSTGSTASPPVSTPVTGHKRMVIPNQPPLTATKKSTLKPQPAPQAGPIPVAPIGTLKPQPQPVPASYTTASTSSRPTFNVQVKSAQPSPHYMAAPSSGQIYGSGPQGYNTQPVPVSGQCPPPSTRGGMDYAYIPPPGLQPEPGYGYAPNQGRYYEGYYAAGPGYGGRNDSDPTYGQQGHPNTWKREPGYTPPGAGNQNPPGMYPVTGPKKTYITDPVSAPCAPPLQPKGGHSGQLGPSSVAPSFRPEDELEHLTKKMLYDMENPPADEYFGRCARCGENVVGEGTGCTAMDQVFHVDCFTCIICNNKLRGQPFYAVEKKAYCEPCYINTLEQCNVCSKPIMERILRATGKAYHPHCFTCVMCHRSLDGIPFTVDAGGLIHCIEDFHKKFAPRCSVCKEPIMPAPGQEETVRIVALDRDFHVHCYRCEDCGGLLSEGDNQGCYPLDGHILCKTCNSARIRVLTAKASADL
In words: two-hybrid; mammalian two-hybrid in HEK293 cells; pM baits, pSNATCH prey, GAL4-regulated luciferase reporter, CMV-β-galactosidase internal control; lysates assayed 18-24 hours after transfection. Background: Reporter assays use an easily measured gene product as a stand-in for the process of interest.

Assay [3] concerns the target T3, pM-LPP_(dNESWT): GAL4-fused full length human LPP with a deletion of the NES (human) (UniProt Q93052).
T3 sequence: T2 sequence with A598T
The assay is described as above.

Assay [4] deals with T4, pM-LPP_(dNESL612A) (human) (UniProt Q93052).
T4 sequence: T2 sequence with A598T, L600A
The description is as above.

As to “CASK-PDZ (pACT2-CASK) (from UniProt O14936 489-564) (domain or fragment)”, in assay [1], the binding result was “no binding”.

For “Erbin-PDZ (pACT2-Erbin) (from UniProt Q96RT1 1321-1410) (domain or fragment)”, the binding result in assay [1] is on record as “no binding”.

Regarding “PICK1-PDZ (pACT2-PICK1) (from UniProt Q9NRD5 22-105) (domain or fragment)”, in assay [1], the binding entry is recorded as “no binding”.

On to “pSNATCH-hScribPDZ: part of the human Scrib protein (amino acids 669–1233) encompassing all four PDZ-domains (from UniProt Q14160 669-1233) (domain or fragment)”, for which the binding entry was “no binding” in assay [2], “binds” in assay [3] and “no binding” in assay [4].

B1: AF6-PDZ (pACT2-AF6) (domain or fragment, UniProt P55196 1007-1093)
chain: IITVTLKKQNGMGLSIVAAKGAGQDKLGIYVKSVVKGGAADVDGRLAAGDQLLSVDGRSLVGLSQERAAELMTRTSSVVTLEVAKQG
Consider B1, for which the binding entry in assay [1] is reported as “no binding”.
